For one experiment, the target named is T1, Flag-GBP2^K51A (mouse) (UniProt Q9Z0E6).
T1 sequence: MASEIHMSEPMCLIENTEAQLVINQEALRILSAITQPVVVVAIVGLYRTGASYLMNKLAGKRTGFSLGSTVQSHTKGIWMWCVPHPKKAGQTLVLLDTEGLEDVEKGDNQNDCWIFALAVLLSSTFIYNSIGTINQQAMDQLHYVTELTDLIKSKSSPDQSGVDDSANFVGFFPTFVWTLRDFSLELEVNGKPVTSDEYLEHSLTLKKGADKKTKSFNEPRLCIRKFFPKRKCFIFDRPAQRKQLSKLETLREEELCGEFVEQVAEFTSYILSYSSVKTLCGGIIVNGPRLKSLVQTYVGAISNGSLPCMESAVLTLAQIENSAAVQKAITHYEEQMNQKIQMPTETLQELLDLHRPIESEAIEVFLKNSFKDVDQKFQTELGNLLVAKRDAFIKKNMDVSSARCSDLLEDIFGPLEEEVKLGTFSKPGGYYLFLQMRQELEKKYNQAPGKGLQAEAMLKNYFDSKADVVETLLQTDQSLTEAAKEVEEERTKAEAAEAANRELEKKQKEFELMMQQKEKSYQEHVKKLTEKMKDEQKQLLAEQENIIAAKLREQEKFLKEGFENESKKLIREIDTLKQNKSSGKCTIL
Put plainly: co-IP.

The target in another experiment is T2, Flag-GBP2^R48A (mouse) (UniProt Q9Z0E6).
T2 sequence: T1 sequence with R48A, A51K
Put plainly: co-IP.

Positions count from the first letter of the chain named. Results are given in words; binding and its absence hold for the method and conditions named. Binding seen in cells or lysates may run through a third protein. Some entries that bind do so weakly or less than the wild type. Where a sequence is shown, tags or fusion partners need not be part of it.

Regarding “HA-PAPL (HA-tagged poly(A) polymerase catalytic subunit of ECTV) (from UniProt Q8JLG4 1-479)”, the binding result in the experiment with Flag-GBP2^K51A (mouse) was “no binding”; in the experiment with Flag-GBP2^R48A (mouse), “binds”.

Source of the values: paper PMC10648259.
